Assay [1] has as its target Myc-tagged Earmuff (Erm), full length (Drosophila (D. melanogaster)) (UniProt Q9VQ56). The assay can be described thus: co-IP; S2 cells co-transfected with Flag- and Myc-tagged proteins; lysis buffer 25 mM Tris pH8, 27.5 mM NaCl, 20 mM KCl, 0.5% Nonidet P40; IP with anti-Myc or anti-Flag overnight at 4°C, protein A/G beads; western blot with anti-Flag and anti-Myc. For orientation: A western blot detects proteins with antibodies after separation by electrophoresis.

Chains of the proteins cited; added tags and fusions are not shown. Lines headed by an entry give the natural chain unless they say otherwise; changes in a name come on top. A line that says so, or that is headed by a name, gives the form on record, which may keep a tag or linker. Residues count along the entry.
UniProt Q9VQ56: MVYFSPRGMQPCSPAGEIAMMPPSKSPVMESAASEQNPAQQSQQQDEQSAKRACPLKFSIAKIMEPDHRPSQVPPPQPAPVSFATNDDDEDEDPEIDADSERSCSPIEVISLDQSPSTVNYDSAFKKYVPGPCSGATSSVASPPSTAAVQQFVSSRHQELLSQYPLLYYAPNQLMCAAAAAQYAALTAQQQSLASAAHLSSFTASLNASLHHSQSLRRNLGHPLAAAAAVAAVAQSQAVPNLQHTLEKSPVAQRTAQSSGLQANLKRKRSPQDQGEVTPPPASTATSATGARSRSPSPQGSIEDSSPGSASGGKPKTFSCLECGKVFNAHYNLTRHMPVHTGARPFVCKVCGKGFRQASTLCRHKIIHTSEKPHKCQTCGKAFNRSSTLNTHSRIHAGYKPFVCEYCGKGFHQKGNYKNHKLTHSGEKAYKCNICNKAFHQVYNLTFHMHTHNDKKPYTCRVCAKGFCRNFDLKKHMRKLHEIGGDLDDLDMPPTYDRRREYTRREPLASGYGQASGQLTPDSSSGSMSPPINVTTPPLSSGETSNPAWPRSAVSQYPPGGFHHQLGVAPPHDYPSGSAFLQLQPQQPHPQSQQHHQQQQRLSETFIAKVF
MBP-Erm-N (Maltose-Binding Protein fused to Erm 1-441aa) (Drosophila (D. melanogaster)): residues 1-441 of Q9VQ56
MBP-Erm-C (Maltose-Binding Protein fused to Erm 332-611aa) (Drosophila (D. melanogaster)): residues 332-611 of Q9VQ56
UniProt P25439: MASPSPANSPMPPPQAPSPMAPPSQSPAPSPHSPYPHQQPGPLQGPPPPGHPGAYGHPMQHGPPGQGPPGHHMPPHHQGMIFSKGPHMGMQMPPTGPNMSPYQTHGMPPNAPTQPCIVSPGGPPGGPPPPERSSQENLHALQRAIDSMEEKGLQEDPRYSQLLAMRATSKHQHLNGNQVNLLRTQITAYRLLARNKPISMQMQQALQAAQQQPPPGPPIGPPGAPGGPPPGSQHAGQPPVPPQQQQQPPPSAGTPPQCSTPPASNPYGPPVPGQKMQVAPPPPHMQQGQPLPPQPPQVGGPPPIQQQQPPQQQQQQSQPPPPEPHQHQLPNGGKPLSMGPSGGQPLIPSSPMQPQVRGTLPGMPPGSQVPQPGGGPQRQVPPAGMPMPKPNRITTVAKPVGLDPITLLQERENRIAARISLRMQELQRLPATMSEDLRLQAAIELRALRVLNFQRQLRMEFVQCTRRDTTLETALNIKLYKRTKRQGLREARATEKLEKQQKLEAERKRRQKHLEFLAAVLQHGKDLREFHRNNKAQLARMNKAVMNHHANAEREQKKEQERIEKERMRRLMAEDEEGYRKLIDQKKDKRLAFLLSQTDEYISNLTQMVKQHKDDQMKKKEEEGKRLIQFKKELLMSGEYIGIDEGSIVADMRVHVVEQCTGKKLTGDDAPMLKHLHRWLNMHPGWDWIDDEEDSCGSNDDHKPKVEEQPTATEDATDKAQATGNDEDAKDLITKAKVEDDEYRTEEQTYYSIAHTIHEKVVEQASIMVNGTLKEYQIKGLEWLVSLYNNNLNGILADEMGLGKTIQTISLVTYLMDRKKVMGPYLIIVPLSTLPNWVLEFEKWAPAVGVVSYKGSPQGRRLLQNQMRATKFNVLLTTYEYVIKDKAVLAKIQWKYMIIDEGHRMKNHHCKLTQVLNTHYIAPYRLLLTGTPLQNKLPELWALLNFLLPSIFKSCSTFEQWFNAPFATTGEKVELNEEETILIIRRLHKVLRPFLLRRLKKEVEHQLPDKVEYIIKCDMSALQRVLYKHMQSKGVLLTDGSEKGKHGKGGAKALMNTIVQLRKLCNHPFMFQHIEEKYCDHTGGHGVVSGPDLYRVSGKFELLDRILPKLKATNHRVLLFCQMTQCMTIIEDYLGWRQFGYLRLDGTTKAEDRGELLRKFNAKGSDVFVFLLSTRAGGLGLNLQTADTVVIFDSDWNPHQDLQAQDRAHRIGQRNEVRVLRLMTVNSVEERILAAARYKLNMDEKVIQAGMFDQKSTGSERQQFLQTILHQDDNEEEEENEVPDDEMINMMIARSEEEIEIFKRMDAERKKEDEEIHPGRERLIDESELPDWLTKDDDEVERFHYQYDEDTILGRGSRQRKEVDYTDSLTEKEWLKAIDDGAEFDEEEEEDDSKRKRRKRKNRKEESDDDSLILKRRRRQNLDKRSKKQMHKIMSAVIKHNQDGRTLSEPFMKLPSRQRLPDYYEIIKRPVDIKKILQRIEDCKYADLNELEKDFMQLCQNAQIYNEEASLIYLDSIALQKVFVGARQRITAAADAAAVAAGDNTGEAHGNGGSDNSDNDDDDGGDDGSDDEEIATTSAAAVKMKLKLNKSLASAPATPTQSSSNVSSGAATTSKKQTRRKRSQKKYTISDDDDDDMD
UniProt Q9VYG2: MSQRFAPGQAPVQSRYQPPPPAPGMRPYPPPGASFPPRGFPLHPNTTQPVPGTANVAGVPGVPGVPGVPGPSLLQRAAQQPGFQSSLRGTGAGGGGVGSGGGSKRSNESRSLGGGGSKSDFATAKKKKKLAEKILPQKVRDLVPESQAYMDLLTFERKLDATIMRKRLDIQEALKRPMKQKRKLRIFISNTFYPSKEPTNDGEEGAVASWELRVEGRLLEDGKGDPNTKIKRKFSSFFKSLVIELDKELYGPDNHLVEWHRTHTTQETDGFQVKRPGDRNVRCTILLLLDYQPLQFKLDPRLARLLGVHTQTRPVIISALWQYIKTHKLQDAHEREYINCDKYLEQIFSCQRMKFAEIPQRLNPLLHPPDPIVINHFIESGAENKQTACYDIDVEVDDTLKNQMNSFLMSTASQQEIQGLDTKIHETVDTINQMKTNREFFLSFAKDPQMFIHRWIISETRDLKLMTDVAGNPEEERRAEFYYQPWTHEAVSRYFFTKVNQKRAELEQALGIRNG

Assay [2] addresses Flag-tagged Erm C-terminal 332-611aa (Drosophila (D. melanogaster)) (UniProt Q9VQ56). Described as above.
The target in assay [3] is T1, Flag-tagged Histone deacetylase 3 (HDAC3) (Drosophila (D. melanogaster)) (UniProt Q7KTS4).
T1 sequence: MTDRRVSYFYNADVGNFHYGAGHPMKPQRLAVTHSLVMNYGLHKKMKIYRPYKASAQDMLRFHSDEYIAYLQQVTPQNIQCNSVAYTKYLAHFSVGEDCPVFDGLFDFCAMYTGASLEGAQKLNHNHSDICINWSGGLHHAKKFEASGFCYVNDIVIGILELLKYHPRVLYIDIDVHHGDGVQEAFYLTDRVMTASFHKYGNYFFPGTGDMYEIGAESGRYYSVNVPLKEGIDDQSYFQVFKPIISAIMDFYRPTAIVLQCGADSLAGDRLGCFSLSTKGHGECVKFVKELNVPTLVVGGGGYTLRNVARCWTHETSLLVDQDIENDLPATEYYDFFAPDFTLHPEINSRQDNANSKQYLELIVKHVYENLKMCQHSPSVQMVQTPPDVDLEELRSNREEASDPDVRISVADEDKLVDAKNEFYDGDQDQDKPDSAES
The description is as above.

The target of assay [4] is Flag-tagged Erm N-terminal 1-441aa (Drosophila (D. melanogaster)) (UniProt Q9VQ56). Described as above.
The target in assay [5] is MBP-Erm-C (Maltose-Binding Protein fused to Erm 332-611aa) (Drosophila (D. melanogaster)) (UniProt Q9VQ56). The assay can be described thus: pull-down; 50 μg purified MBP or MBP fusion protein bound on amylose resin, incubated 3 hr at 4°C with protein extracts from transfected S2 cells; washed three times with lysis buffer; western blot with anti-Myc; only the target purified.

For assay [6], the target named is MBP-Erm-N (Maltose-Binding Protein fused to Erm 1-441aa) (Drosophila (D. melanogaster)) (UniProt Q9VQ56). The description is as above.
In assay [7] the target is Flag-tagged Brahma (Brm) (Drosophila (D. melanogaster)) (UniProt P25439). The assay can be described thus: co-IP; S2 cells co-transfected with Flag- and Myc-tagged proteins; lysis buffer 25 mM Tris pH8, 27.5 mM NaCl, 20 mM KCl, 0.5% Nonidet P40; IP with anti-Myc or anti-Flag overnight at 4°C, protein A/G beads; western blot with anti-Flag and anti-Myc.
The target in assay [8] is Myc-tagged Erm C-terminal 332-611aa (Drosophila (D. melanogaster)) (UniProt Q9VQ56). The description is as above.
Assay [9] has as its target Myc-tagged Erm N-terminal 1-441aa (Drosophila (D. melanogaster)) (UniProt Q9VQ56). The description is as above.
Assay [10] has as its target Flag-tagged BAP60 (Drosophila (D. melanogaster)) (UniProt Q9VYG2). The assay is described as above.
Assay [11] addresses Myc-tagged Erm C-terminal 332-611aa (Drosophila (D. melanogaster)) (UniProt Q9VQ56). The assay is described as above. This is another data set of the same source.
In assay [12] the target is Myc-tagged Brahma (Brm) (Drosophila (D. melanogaster)) (UniProt P25439). The description is as above.
Assay [13] deals with Myc-tagged Erm N-terminal 1-441aa (Drosophila (D. melanogaster)) (UniProt Q9VQ56). Described as above. The source holds these as a separate data set.
In assay [14] the target is MBP-Erm-C (Maltose-Binding Protein fused to Erm 332-611aa) (Drosophila (D. melanogaster)) (UniProt Q9VQ56). The assay can be described thus: pull-down; 50 μg purified MBP or MBP fusion protein bound on amylose resin, incubated 3 hr at 4°C with protein extracts from transfected S2 cells; washed three times with lysis buffer; western blot with anti-Myc; only the target purified. This is another data set of the same source.

For assay [15], the target named is MBP-Erm-N (Maltose-Binding Protein fused to Erm 1-441aa) (Drosophila (D. melanogaster)) (UniProt Q9VQ56). Described as above. The source holds these as a separate data set.

Read-outs that look alike come from different tables or passages of the source. No constants are given. Whether binding was seen depends on the method and setting. In cells and extracts the contact can be indirect. Some results given as binding are weak or reduced against the parent protein; the word gives no strength. For part of these data: Sequences can lack the tags named with a protein.

As for “Flag-tagged Brahma (Brm) (from UniProt P25439 1-1638)”, the binding entry in assay [1] is reported as “binds”.
In the case of “Myc-tagged Brahma (Brm) (from UniProt P25439 1-1638)”, the binding entry in [2] is “binds weakly”; in [3], “binds”; in assay [4] it was “binds”; in [5] it was “binds weakly”; in assay [6], “binds”.
On to “Myc-tagged Earmuff (Erm), full length (from UniProt Q9VQ56 1-611)”, for which the binding entry in [7] was “binds”.
For “Flag-tagged BAP60 (from UniProt Q9VYG2 1-515)”, the binding entry in assay [8] is listed as “no binding”; in assay [9], “binds”.
As to “Myc-tagged Erm N-terminal 1-441aa (from UniProt Q9VQ56 1-441) (domain or fragment)”, the binding result in [10] is recorded as “binds”.

B1: Flag-tagged Histone deacetylase 3 (HDAC3) (enzyme, UniProt Q7KTS4 1-438)
chain: MTDRRVSYFYNADVGNFHYGAGHPMKPQRLAVTHSLVMNYGLHKKMKIYRPYKASAQDMLRFHSDEYIAYLQQVTPQNIQCNSVAYTKYLAHFSVGEDCPVFDGLFDFCAMYTGASLEGAQKLNHNHSDICINWSGGLHHAKKFEASGFCYVNDIVIGILELLKYHPRVLYIDIDVHHGDGVQEAFYLTDRVMTASFHKYGNYFFPGTGDMYEIGAESGRYYSVNVPLKEGIDDQSYFQVFKPIISAIMDFYRPTAIVLQCGADSLAGDRLGCFSLSTKGHGECVKFVKELNVPTLVVGGGGYTLRNVARCWTHETSLLVDQDIENDLPATEYYDFFAPDFTLHPEINSRQDNANSKQYLELIVKHVYENLKMCQHSPSVQMVQTPPDVDLEELRSNREEASDPDVRISVADEDKLVDAKNEFYDGDQDQDKPDSAES
Regarding B1, the binding result was “no binding” in assay [11], “binds” in assay [12] and “binds” in assay [13].

B2: Myc-tagged Histone deacetylase 3 (HDAC3) (enzyme, UniProt Q7KTS4 1-438)
chain: MTDRRVSYFYNADVGNFHYGAGHPMKPQRLAVTHSLVMNYGLHKKMKIYRPYKASAQDMLRFHSDEYIAYLQQVTPQNIQCNSVAYTKYLAHFSVGEDCPVFDGLFDFCAMYTGASLEGAQKLNHNHSDICINWSGGLHHAKKFEASGFCYVNDIVIGILELLKYHPRVLYIDIDVHHGDGVQEAFYLTDRVMTASFHKYGNYFFPGTGDMYEIGAESGRYYSVNVPLKEGIDDQSYFQVFKPIISAIMDFYRPTAIVLQCGADSLAGDRLGCFSLSTKGHGECVKFVKELNVPTLVVGGGGYTLRNVARCWTHETSLLVDQDIENDLPATEYYDFFAPDFTLHPEINSRQDNANSKQYLELIVKHVYENLKMCQHSPSVQMVQTPPDVDLEELRSNREEASDPDVRISVADEDKLVDAKNEFYDGDQDQDKPDSAES
With B2, the binding entry in assay [14] is “no binding”; in [15] it was “binds”.

The values are drawn from article PMC3944433.
